Results: the RNAGym collection of RNA variant scans (doi:10.7554/elife.90254)
Read counts are not given, so values of variants with three or more changes are uncertain.

B1: LINE1-mini (parent)
chain: GGCAGAGCUCAACACAGCGUGGCAAAGUGGCUGUGGCUAGACUGCC

Variants of: B1
Test: self-cleavage, relative activity (ratio to wild type); higher = more cleavage; in vitro, sequencing; the parent is a self-cleaving ribozyme

Variant | self-cleavage
G1U A4G G7A A24G C31A G36A | 0.18
G17A G21A A26U | 0.26
C8U G35A G40C | 0.04
A12U C15A G22C G27C U34C G36A C37A | 0.03
C15G A26C C31A U34A G36U | 0.02
A4U A6G C13G C23A C42A | 0.08
G2C C3U G5A C42U | 0.11
G7A G19C G30A | 0.05
G7U C13U C23A A24C | 0.08
G7U G36C C37A U38G | 0.02
C15G U20G A41G | 0.01
G5A G19C G36A | 0.41
G5A C18A A26U C37U | 0.06
U20A G44U C45G | 0.09
G17U A25C G44C | 0.01
G7C G17A G21U | 0.16
U20G U28A U43C | 0.02
A6C C13A A24C G33C | 0.05
U9A G19C U38G | 0.01
G2A G33A U43G C45A | 0.22
A6C C10G G17C C31A | 2.75
A6C C8G U9A C10G | 0.05
G27A G30C G36A G44A | 0.61
U20G G21U U28C G29U | 0.17

Variant | self-cleavage
C8U C13G A26G A41C | 0.03
C3A C23G U38C C46G | 0.1
C3U G5C A6G G7U U34C | 0.03
A6G A26U C45G | 0.15
C10G G21A G22C U32C U34C | 0.01
C8U G36U C46A | 0.2
A16G U20C G21A G44A | 0.05
C8U C31A A41C | 0
C3A U9A U32C G35U | 1.42
G5U A16U G22U | 0.05
A16C G17C G21A C31U | 0.09
C18A C31A G35A | 0.03
C3A G5A U20A G36U | 0.25
G5A U9G G29U G36A | 1
G5U C18U G21C A25G A26G G29C | 0.02
A6G C10G C46U | 0.05
U28C G29U C45G | 0.3
G2A A14U G21U | 0.37
G1C G22U C31G | 0.01
A25U C31A C45U | 0.03
A6C C10G G35A | 0.02
A12U G30U G35U | 0.09
C3U G7U A11U A16U G17U U32A | 0.01
A11G G19U C45U | 0.02

Variant | self-cleavage
C8A A16U U43A C46U | 0.08
C15U C45U C46G | 0.01
U20A G36C G40U C42U | 0.02
A6U G7U G19A | 0.06
G1C G17C C42G | 0.01
A4C C10A G19A C31G | 0.03
G7U C10G C13A A25C | 0.02
G21C A25U U28A C31U | 0.3
A24G C31U G33U U43G | 0.43
A25U G27C C42U | 0.04
G1U C3U U9G C13A U20A G35C | 0.04
G30C G36C C42G | 0.02
G5A C10A G19C G35C | 0.02
G19A C37A U43A | 0
U9G A12C A39G | 0
C18U G30U G40C C45U | 0.01
U9A U20G C42G | 0.05
G2C C15G G36C C46G | 0.01
G7A C10A G19C | 0.02
G2A A4U A6C C37G G40U | 0.02
G29A A41C C46A | 0.06
A11C U20A U43G | 0
C3G C13G G40C | 0.06
C8A G22C C37A C46A | 0.22

Variant | self-cleavage
C8U A11G A14G U28A A39G | 0.01
C3A A16U U34G G36U | 0.08
A4G G5U C18G G22C A25C A26G U38A | 0.01
A14G G33U U38A | 0.05
G19C G21A U38C | 0.15
G1C C23A A41U | 0.17
A12G G30C C42G C46A | 0.01
C10A U28G C37A | 0.01
G1A C15G U20C A24G | 0.03
A12G A16C G17U C18U C45U | 0.01
G1U G7A G21U A25U | 0.05
G22C G33C C37U | 0.04
G7C A14G G19A C46A | 0.05
C31U G40A C45A | 0.01
A14G U38G C46A | 0.02
C13G C42U C45G | 0.04
G17A A25U C37A C46A | 0.02
C13U A24U G33U C42A C45U | 0.02
G17U G22C U34C | 0.09
A25G A26U U43C | 0.15
A6C A25U A41G | 0.81
U9C G29U G40U | 0.07
G5A U9A G17A A41G | 0.01
A6U G33A A39G G44U | 0.05

Variant | self-cleavage
C8U C10U G22U A39U | 0.04
G2C A14G U20C C23G U32A C45A | 0.02
C23U U32C G44A | 0.14
G2U C3A C46U | 0.07
C10U A26C G27A U32G C42U | 0.06
C8G G19C G21A A26U | 0.05
C10A C13U G22A | 0.13
C8U C10U C18A C23A G29U A41C | 0.03
C3A U34A U38A | 0.11
A11U G17A G22C A25C G27A | 0.02
A14U G29U G44A | 0.38
C10A C15G A16C G19U | 0
C8G C15U U20C A26U C46U | 0.09
G1U G7C C18A U20G A25C A26U A39U | 0.02
G27A A39U C45G | 0.08
A4G A16C G21C G36C | 0.05
G5C C18A U38A | 0.08
G1A G30A C46A | 0.86
G1C A25G A26C G29A C31G | 0.01
A12U A25G G44C | 0.06
A12U G19C C23G C31G U38C | 0.11
G22A G30A U43G | 1.79
G7A C23A C46G | 0.05
A6U A14C A26U | 0.06

Variant | self-cleavage
G7C A26C G36A | 0.08
G21U A25C A26U | 0.52
C10U G19U G21A | 0.82
A4C C13G G17A C42U | 0.14
G1U A12C G35A | 0.02
A24G G29C U34A | 0.06
C15G G27C A39U G44C | 0.01
G1A G40U C42A | 0.05
A4C A39C C46A | 0.09
G5U A11C A12U G44U | 0.04
C3G A4G A6C C13U C15U U43A | 0.09
A6U A14C C42G | 0.08
G7U C13A G27U G40C | 0.17
U20C C31U U34A | 0.03
A6C C23U G40U | 0.27
G1U G17U G29A U34C | 0.1
A16U U32G C42U G44U | 0.05
C8A A11G A16G A26U U43A C45U | 0
G2U A6G C10U G33C | 0
C10A G17C G35U G36U | 0.03
C3A G22C G29U G36A C46A | 0.16
A12C G19C C23A G27A C37A C46A | 0.01
A16G C31U G33C G40U U43C | 0
G2C G5C C8U U9G | 0.04

Variant | self-cleavage
G17U A25G C42G C46G | 0.01
C8A G35C C42A | 0.25
U9G C10U G22U G29A U38C | 0.04
G5A C31G G33U | 0.02
G7C U20G A41U | 0.16
A6C C13G G30C G40U A41G | 0.02
G1U G5C C13U G19C | 0.17
G7U C18A G27U | 0.06
G1C A26C U43A | 0.03
G2C G19U C42A | 0.02
C3G U9A G33A U38C | 0.26
G17U A26C G40C C46A | 0.02
G2U C10G G21U | 0.03
G7A G33A C42A | 0.18
A12U U20C G36U | 0.02
G5A A6C A16U G22C U28G G44U | 0.04
C13A G17U U28A C31G A41U | 0.05
C13A A26C U34G C42U | 0.06
C10A G21U C23G G30A | 0.03
A6G U20A A24U | 0.13
G5A A25U A26G G29A C42A | 0.02
G1A U20G C42G | 0.01
G21U U32C A41U C45A | 0.03
